# Experimental data as given in PubChem BioAssay AID504339 (National Center for Advancing Translational Sciences (NCATS), 2011).
# Hit rate of the full screen: of about 390,000 compounds, about 17,000 (4.4%) were called active. The inconclusive results got no clear call from the source; some entries with a clear call stand among them for comparison. The call rests on the fitted dose curve; in most records, active means well fitted inhibition curve with a large enough effect; inconclusive means small, poorly fitted or top-dose-only effect; inactive means no such curve, though single readings can be large or run the other way. Where the call is inconclusive, the potency comes from a doubtful curve fit.
# Target: Lysine-specific demethylase 4A (Homo sapiens) (UniProt O75164)
# Assay: qHTS Assay for Inhibitors of JMJD2A-Tudor Domain; further: nearly all actives have a fitted effect of over 50% in size
# Settings: AlphaScreen JMJD2A-Tudor / H3K4me3 peptide binding; series mostly up to 114 µM
# Potency means the concentration at half of the fitted maximal effect; tags describe the fitted curve by direction and shape.
# Sequence of UniProt O75164 (O75164 whole entry, looked up, the tested form may be a part): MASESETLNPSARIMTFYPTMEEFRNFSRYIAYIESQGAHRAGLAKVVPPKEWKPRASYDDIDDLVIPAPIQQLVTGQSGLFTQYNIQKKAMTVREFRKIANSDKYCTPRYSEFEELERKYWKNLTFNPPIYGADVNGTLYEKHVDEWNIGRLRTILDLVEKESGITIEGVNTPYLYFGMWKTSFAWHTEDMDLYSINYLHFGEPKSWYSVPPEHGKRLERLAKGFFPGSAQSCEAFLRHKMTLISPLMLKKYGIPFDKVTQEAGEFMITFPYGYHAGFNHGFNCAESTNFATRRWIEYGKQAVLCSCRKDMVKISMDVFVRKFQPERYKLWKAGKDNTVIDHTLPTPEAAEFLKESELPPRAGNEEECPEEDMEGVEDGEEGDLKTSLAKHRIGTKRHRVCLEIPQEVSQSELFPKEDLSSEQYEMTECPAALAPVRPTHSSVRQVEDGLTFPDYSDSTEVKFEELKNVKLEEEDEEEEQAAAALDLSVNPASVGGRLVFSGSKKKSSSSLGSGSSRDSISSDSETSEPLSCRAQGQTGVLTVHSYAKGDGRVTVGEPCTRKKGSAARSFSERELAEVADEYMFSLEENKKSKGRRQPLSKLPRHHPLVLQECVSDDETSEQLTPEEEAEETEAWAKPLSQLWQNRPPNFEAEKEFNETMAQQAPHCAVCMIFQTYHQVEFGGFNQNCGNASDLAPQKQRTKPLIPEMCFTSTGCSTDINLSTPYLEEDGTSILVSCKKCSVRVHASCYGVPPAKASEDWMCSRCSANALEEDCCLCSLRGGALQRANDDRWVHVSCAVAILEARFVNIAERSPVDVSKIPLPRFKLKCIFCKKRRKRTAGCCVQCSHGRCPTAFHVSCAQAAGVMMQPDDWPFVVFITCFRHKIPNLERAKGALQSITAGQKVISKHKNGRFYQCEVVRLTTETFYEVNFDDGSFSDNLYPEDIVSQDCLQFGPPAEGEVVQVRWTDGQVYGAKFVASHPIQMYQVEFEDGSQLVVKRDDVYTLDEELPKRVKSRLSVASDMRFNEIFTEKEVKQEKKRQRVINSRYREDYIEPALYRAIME
row,SMILES,Potency
1,O=C(Nc1cc([N+](=O)[O-])ccc1Cl)C(Sc1ccccc1)c1ccccc1 (stereo unspecified),active: 79.4 µM
2,Cn1ccc2cc(S(=O)(=O)N3CCCN(C(=O)Nc4ccccc4Br)CC3)ccc21,inactive
3,CCOC(=O)N1CCC(NC(=O)c2ccc3c(c2)N=C(C)c2c(C)ccc(C)c2S3)CC1,"inconclusive: 44.7 µM [inhibitor, partial curve]"
4,Cc1cc(Cn2nnnc2-c2ccncc2)cc(C)c1O,inactive
5,Cc1ccc(NC(=O)c2cnc(SCC(=O)N3CCOCC3)n(C)c2=O)cc1,inactive
6,COC(=O)COc1cccc(NC(=O)c2ccc(Cl)cc2)c1,"inconclusive: 10 µM [inhibitor, partial curve]"
7,O=C(CCl)Nc1nc(-c2ccco2)c(-c2ccco2)s1,"inconclusive: 50.1 µM [inhibitor, partial curve]"
8,S=c1[nH]nc(CSCc2ccccc2Cl)n1C1CCCCC1,"inconclusive: 56.2 µM [inhibitor, partial curve]"
9,CCNc1nc(NCC)nc(N(C)N)n1,active: 28.2 µM
10,CN(CC(=O)Nc1ccccc1[N+](=O)[O-])Cc1ccc(Br)cc1,"inconclusive: 39.8 µM [inhibitor, partial curve]"
11,O=C(CSc1nccn1-c1ccccc1)Nc1nc2ccccc2s1,inactive
12,Cc1ccc(CN(C(=O)COc2cccc([N+](=O)[O-])c2)c2ccccn2)o1,"inconclusive: 50.1 µM [inhibitor, partial curve]"
13,N#CCCN1CCN(C(=S)c2ccc(-c3cc(Cl)ccc3Cl)o2)CC1,active: 39.8 µM
14,CC(C)OP(=O)(OC(C)C)C(Nc1ccccc1)c1cccnc1 (stereo unspecified),"inconclusive: 89.1 µM [inhibitor, single point]"
15,COc1cc(/C=C2\Oc3ccc(C#Cc4ccc(O)cc4)cc3C2=O)cc(OC)c1,active: 89.1 µM
16,OC1CC2CCC(C1)N2CCCN1c2ccccc2Sc2ccc(Cl)cc21 (stereo unspecified),"inconclusive: 89.1 µM [inhibitor, partial curve]"
17,Nc1cccc2c(O)cc(S(=O)(=O)O)cc12,active: 10 µM
18,Cn1nnnc1SCCNCc1ccc(F)cc1,inactive
19,COc1ccc(C2Nc3ccccc3C(=O)N2Cc2ccco2)cc1CN1C(=O)c2ccccc2C1=O (stereo unspecified),"inconclusive: 63.1 µM [inhibitor, partial curve, poor fit]"
20,CCOC(=O)c1c(CC(C)C)csc1NC(=O)c1ccccc1C(=O)O,"inconclusive: 15.8 µM [inhibitor, single point]"
21,COc1ccccc1/C=C1\SC(=S)N(N2C(=O)CCCC2=O)C1=O,"inconclusive: 28.2 µM [inhibitor, full curve]"
